Reference: PubChem BioAssay (Tox21)
“And” between values parts separate entries of the source, which are not always exact repeats. Identical values can stand only once. Inconclusive means that the source gave no clear call. Such entries were picked first, then a sample of the others. For part of these data: Potencies beside an inconclusive call are fits to weak or partial responses and may not hold up. More than one record can exist for a structure, and the calls need not agree. The source made the active and inactive calls. Unless noted, calls come from the whole dose curve; as a rule, active = well fitted curve in the direction sought with a large enough effect in the repeat runs; inconclusive = weak or mixed curves; inactive = no such curve, though single readings can be large; an effect the other way counts as inactive or inconclusive.

Experiments:
[1] = qHTS assay to identify small molecule agonists of H2AX (AID 1224845; active = well fitted activation curve with a large enough effect in the signal ratio in the repeat runs, not every such curve was filed as active; inconclusive = weak or mixed curves; the % refers to the signal ratio; note: potency is the fitted concentration of half-maximal effect; for activation (H2AX phosphorylation): % is set by controls: 0 for no effect and ±100 for the full control effect); settings: CHO-K1 phospho-H2AX Ser139 HTRF, 3 h; activation (H2AX phosphorylation): at 154 µM (top of the series) unless noted
How it was run: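 Wild-type CHO-K1 cells, plated overnight, exposed 3hr at 37C to 15 concentrations (0.76% DMSO final). Lysed, then HTRF anti-pH2AX (S139) cryptate and anti-H2AX-d2 antibodies, 24 hr room temperature; 665/620 nm emission read.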

[2] = qHTS assay to identify small molecule agonists of the hypoxia (HIF-1) signaling pathway (AID 1224846; active = well fitted activation curve with a large enough effect in the signal ratio in the repeat runs, not every such curve was filed as active; inconclusive = weak or mixed curves; the % refers to the signal ratio; note: potency is the fitted concentration of half-maximal effect); settings: HRE-bla ME-180 cells, beta-lactamase ratio, 17 h; activation: at 76.8 µM (top of the series) unless noted
How it was run: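 ME-180 HRE-bla reporter cells; compounds in DMSO, 17 h at 37C; read-out beta-lactamase via CCF4-AM FRET.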

[3] = qHTS assay to identify small molecule agonists of H2AX - cell viability counter screen (AID 1224847; calls by dose curve; note: potency is the fitted concentration of half-maximal effect; nearly all actives have a fitted effect of over 30% in size)
How it was run: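 Counter-screen for viability: CellTiter-Glo ATP luminescence read after 3 h compound treatment (15-point titration, 0.76% DMSO final) of CHO-K1 cells at 37C, with 30 min room-temperature reagent incubation.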

[4] = qHTS RealTime-Glo MT Cell Viability Assay in HepG2 cells - 24 hour (AID 1224867); note: potency is the fitted concentration of half-maximal effect; nearly all actives have a fitted effect of over 50% in size
How it was run: (§1)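 Cells + NanoLuc/prosubstrate dispensed (600 cells/well) → 5 h at 37 C/5% CO2 → compounds in DMSO transferred → 40 h incubation at 37 C, luminescence read at 0, 8, 16, 24, 32, 40 h.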

[5] = qHTS RealTime-Glo MT Cell Viability Assay in HepG2 cells - 40 hour (AID 1224870); note: potency is the fitted concentration of half-maximal effect; nearly all actives have a fitted effect of over 50% in size
How it was run: (§2)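 HepG2 cells (600/well) mixed with RealTime-Glo MT reagent, settled 5 h at 37 C/5% CO2 before compound addition. Nonlytic NanoLuc luminescence from viable-cell prosubstrate reduction read repeatedly during 40 h treatment at 37 C.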

[6] = qHTS RealTime-Glo MT Cell Viability Assay in HEK293 cells - 16 hour (AID 1224872); note: nearly all actives have a fitted effect of over 50% in size; note: potency is the fitted concentration of half-maximal effect
How it was run: (§3)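 Tox21 10K qHTS, HEK293, 600 cells/well, RealTime-Glo reagent co-dispensed with cells; 5 h preincubation, compound by pintool, 37 C, luminescence at 0–40 h.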

[7] = qHTS RealTime-Glo MT Cell Viability Assay in HepG2 cells - 8 hour (AID 1224873); note: potency is the fitted concentration of half-maximal effect; nearly all actives have a fitted effect of over 55% in size
How it was run: as §2

[8] = A CellTox Green Cytotoxicity Assay to monitor cytotoxicity in HEK293 cells - 24 hour (AID 1224875); note: potency is the fitted concentration of half-maximal effect; nearly all actives have a fitted effect of over 45% in size
How it was run: (§4)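 Real-time, in one plate: 600 HEK293 cells/well with dead-cell DNA dye, pinned compound after 5 h, 37 C incubation over 40 h; viable cells give no appreciable fluorescence.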

[9] = qHTS RealTime-Glo MT Cell Viability Assay in HepG2 cells - 32 hour (AID 1224877); note: potency is the fitted concentration of half-maximal effect; nearly all actives have a fitted effect of over 55% in size
How it was run: as §1

[10] = A CellTox Green Cytotoxicity Assay to monitor cytotoxicity in HEK293 cells - 32 hour (AID 1224881); note: potency is the fitted concentration of half-maximal effect; nearly all actives have a fitted effect of over 40% in size
How it was run: as §4

[11] = A CellTox Green Cytotoxicity Assay to monitor cytotoxicity in HepG2 cells - 40 hour (AID 1224879); note: potency is the fitted concentration of half-maximal effect; nearly all actives have a fitted effect of over 40% in size
How it was run: (§5)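 Cytotoxicity was tracked as dead-cell DNA fluorescence in HepG2 cells treated with test compounds at 37 C; each time-point value comes from one kinetic series spanning 0, 8, 16, 24, 32 and 40 h.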

[12] = qHTS assay to identify small molecule antagonists of the estrogen related receptor (ERR) signaling pathway from Tox21 library (AID 1224848); note: potency is the fitted concentration of half-maximal effect; nearly all actives have a fitted effect of over 50% in size
How it was run: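 Compounds dissolved in DMSO are pin-transferred onto ERR reporter cells (2,000 per well) that have settled for 6 h at 37 C. Plates then incubate 18 h at 37 C before ONE-Glo luciferase reagent and a luminescence read 30 min later.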

[13] = qHTS RealTime-Glo MT Cell Viability Assay in HEK293 cells - 32 hour (AID 1224868)
How it was run: as §3

[14] = A CellTox Green Cytotoxicity Assay to monitor cytotoxicity in HEK293 cells - 40 hour (AID 1224871); note: potency is the fitted concentration of half-maximal effect; nearly all actives have a fitted effect of over 45% in size
How it was run: as §4

[15] = qHTS RealTime-Glo MT Cell Viability Assay in HEK293 cells - 40 hour (AID 1224874); settings: RealTime-Glo luminescence; max response: stronger effect = lower value
How it was run: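 Kinetic, non-lysing viability readout. Seed HEK293 (600/well) with reagent, incubate 5 h at 37 C/5% CO2, pin 23 nL compound in DMSO, incubate at 37 C, read luminescence at 0, 8, 16, 24, 32, 40 h.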

[16] = A CellTox Green Cytotoxicity Assay to monitor cytotoxicity in HepG2 cells - 16 hour (AID 1224876); note: potency is the fitted concentration of half-maximal effect; nearly all actives have a fitted effect of over 45% in size
How it was run: as §5

[17] = A CellTox Green Cytotoxicity Assay to monitor cytotoxicity in HepG2 cells - 24 hour (AID 1224878); note: potency is the fitted concentration of half-maximal effect; nearly all actives have a fitted effect of over 45% in size
How it was run: as §5

[18] = qHTS assay to identify small molecule agonists of the estrogen related receptor (ERR) signaling pathway from Tox21 library (AID 1224849; calls by dose curve; note: % is set by controls: 0 for no effect and ±100 for the full control effect; nearly all actives have a fitted effect of over 15% in size); settings: ERR reporter cell line, ONE-Glo luciferase, 18 h; at 92.4 µM (top of the series)
How it was run: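 Luciferase activity in ERR pathway reporter cells served as the agonist readout; exposure lasted 18 h at 37 C, with ONE-Glo detection after 30 min at room temperature.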
Tags give direction and shape of the fitted curve or compound fluorescence and quenching.

## CCCCCCCCCCCCc1ccc(O)cc1
[1]
  Potency: active: 56.6 µM
[2]
  Potency: inconclusive: 21.9 µM [falling, full curve]
[3]
  Potency: active: 45 µM
[4]
  Potency: active: 49 µM
[5]
  Potency: active: 54.9 µM
[6]
  Potency: active: 38.9 µM
[7]
  Potency: inconclusive: 21.9 µM [falling, partial curve]
[8]
  Potency: active: 49 µM
[9]
  Potency: active: 49 µM
[10]
  Potency: active: 49 µM

## COC(=O)NCCC[Si](OC)(OC)OC
[1]
  Potency: inconclusive: 127 µM [activator, single point]
[2]
  Potency: inconclusive: 54.9 µM [single point]
[3]
  Potency: inconclusive: 1.6 µM [cytotoxic, single point]

## CC(O)(c1ccc(Cl)cc1)c1ccc(Cl)cc1
[1]
  Potency: inconclusive: 113 µM [activator, single point]
[2]
  Potency: inconclusive: 61.6 µM [falling, single point]
[3]
  Potency: active: 56.6 µM
[4]
  Potency: inconclusive: 54.9 µM [falling, single point]
[6]
  Potency: active: 38.9 µM
[7]
  Potency: inconclusive: 49 µM [falling, partial curve]
[8]
  Potency: active: 49 µM
[9]
  Potency: inconclusive: 54.9 µM [cytotoxic, partial curve, poor fit]
[11]
  Potency: active: 49 µM

## C/C=C/C(=O)Oc1c(CCCCCC(C)C)cc([N+](=O)[O-])cc1[N+](=O)[O-]
[1]
  Potency: inconclusive: 89.8 µM [activator, partial curve]
[2]
  Potency: inconclusive: 19.5 µM [falling, partial curve]
[3]
  Potency: active: 50.5 µM
[12]
  Potency: active: 6.11 µM
[13]
  Potency: active: 15.5 µM
[14]
  Potency: active: 38.9 µM
[7]
  Potency: active: 21.9 µM
[15]
  Potency: active: 7.76 µM
[16]
  Potency: inconclusive: 34.7 µM [activator, partial curve]
[10]
  Potency: active: 38.9 µM

## CCCCCCCCCCCCCC[P+](CCCC)(CCCC)CCCC
[1]
  Potency: inconclusive: 44.7 µM [activator, single point] and inconclusive: 45 µM [activator]
[2]
  Potency: inconclusive: 21.8 µM [full curve] and inconclusive: 21.9 µM
[3]
  Potency: active: 3.99 µM and active: 31.8 µM
[4]
  Potency: active: 21.8 µM and active: 13.8 µM
[5]
  Potency: active: 21.8 µM and active: 11 µM
[14]
  Potency: active: 13.7 µM and active: 17.4 µM
[9]
  Potency: active: 21.8 µM and active: 12.3 µM
[17]
  Potency: active: 21.8 µM and active: 15.5 µM
[11]
  Potency: active: 19.4 µM and active: 17.4 µM

## Oc1c(Cl)cc(Cl)c(Cl)c1Cc1c(O)c(Cl)cc(Cl)c1Cl
[1]
  Potency: inconclusive: 113 µM [activator]
  activation (H2AX phosphorylation): inconclusive: 11.4%
[3]
  Potency: inconclusive: 11 µM [cytotoxic, full curve]
[4]
  Potency: inconclusive: 21.9 µM [falling, partial curve]
[13]
  Potency: inconclusive: 2.68 µM [cytotoxic, full curve]
[14]
  Potency: active: 48.9 µM and active: 49 µM
[6]
  Potency: inconclusive: 19.4 µM [cytotoxic, partial curve] and inconclusive: 21.9 µM [cytotoxic, partial curve]
[15]
  Potency: inconclusive: 2.39 µM [cytotoxic, full curve]
[16]
  Potency: active: 43.6 µM and inconclusive: 26.8 µM [activator, single point]
[17]
  Potency: active: 38.9 µM
[11]
  Potency: active: 21.8 µM and active: 38.9 µM and inconclusive: 26.8 µM [activator, single point]

## CCc1cc(Cc2cc(CC)cc(C(C)(C)C)c2O)c(O)c(C(C)(C)C)c1
[1]
  Potency: active: 50.5 µM
[2]
  Potency: inconclusive: 11 µM [falling, full curve]
[3]
  Potency: active: 31.8 µM
[18]
  activity change, positive = activation: inactive: -75.4%
[7]
  Potency: active: 49 µM
[8]
  Potency: inconclusive: 54.9 µM [activator, single point]
[16]
  Potency: inconclusive: 54.9 µM [activator, single point]
[17]
  Potency: inconclusive: 54.9 µM [activator, single point]
[11]
  Potency: inconclusive: 54.9 µM [activator, single point]
[10]
  Potency: inconclusive: 54.9 µM [activator, single point]

## C=CC(=O)OCC(O)COc1ccccc1 (configuration not stated)
[1]
  Potency: inconclusive: 127 µM [falling, single point]
[2]
  Potency: inconclusive: 34.7 µM [partial curve]
[3]
  Potency: inconclusive: 89.8 µM [rising, partial curve]
[4]
  Potency: inconclusive: 54.9 µM [falling, partial curve, poor fit]
[14]
  Potency: inconclusive: 54.9 µM [activator, single point]
[11]
  Potency: inconclusive: 49 µM [activator, partial curve, poor fit]
[10]
  Potency: inconclusive: 54.9 µM [activator, single point]

## CN(C)CCOc1ccc(/C(=C(/CCCl)c2ccccc2)c2ccccc2)cc1
[1]
  Potency: inconclusive: 106 µM [activator, single point]
[2]
  Potency: inconclusive: 51.4 µM [single point]
[3]
  Potency: active: 94.3 µM
[4]
  Potency: active: 40.9 µM
[13]
  Potency: active: 36.4 µM
[6]
  Potency: active: 36.4 µM
[15]
  Potency: active: 40.9 µM
[8]
  Potency: active: 45.8 µM
[16]
  Potency: active: 32.5 µM
[17]
  Potency: active: 32.5 µM
[10]
  Potency: active: 40.9 µM

## Nc1ccc(Nc2ccccc2)cc1
[1]
  Potency: inconclusive: 88.8 µM [falling, partial curve] and inconclusive: 50.5 µM [falling, partial curve] and inconclusive: 89.8 µM [falling, partial curve]
[2]
  Potency: inconclusive: 54.4 µM
[3]
  Potency: inconclusive: 112 µM [cytotoxic, partial curve]
[13]
  Potency: active: 48.5 µM and inconclusive: 49 µM [cytotoxic, single point] and inconclusive: 54.9 µM [cytotoxic, single point]
[6]
  Potency: active: 43.2 µM and inconclusive: 49 µM [cytotoxic, single point] and inconclusive: 34.7 µM [cytotoxic, partial curve]
[15]
  Potency: active: 48.5 µM and inconclusive: 49 µM [cytotoxic, single point] and inconclusive: 54.9 µM [cytotoxic, single point]

## Cc1ccc(O)c2ncccc12
[1]
  Potency: inconclusive: 55.2 µM [falling, partial curve, poor fit]
[2]
  Potency: inconclusive: 4.25 µM [falling, full curve]
[3]
  Potency: inconclusive: 61.9 µM [cytotoxic, single point]
[6]
  Potency: inactive
[17]
  Potency: inconclusive: 10.7 µM [activator, single point]
[10]
  Potency: inconclusive: 26.8 µM [activator, single point]

## N#Cc1nc(Cl)c(Cl)c(Cl)c1Cl
[1]
  Potency: inconclusive: 5.66 µM [falling, partial curve]
[2]
  Potency: inconclusive: 30.9 µM [falling, partial curve]
[3]
  Potency: inconclusive: 8 µM [rising, full curve]
[14]
  Potency: active: 1.55 µM
[7]
  Potency: inconclusive: 21.9 µM [falling, partial curve]
[8]
  Potency: inconclusive: 61.6 µM [activator, single point]
[10]
  Potency: inconclusive: 27.5 µM [activator, partial curve, poor fit]

## S=P(N1CC1)(N1CC1)N1CC1
[1]
  Potency: inconclusive: 134 µM [activator]
[2]
  Potency: inconclusive: 65 µM [falling, single point]
[12]
  Potency: inconclusive: 45.6 µM [inhibitor]
[13]
  Potency: inconclusive: 6.5 µM [cytotoxic, full curve]
[6]
  Potency: inactive
[15]
  Potency: inconclusive: 22.2 µM [cytotoxic]

## N=C1N=C(N)c2cc3ccccc3cc21
[1]
  Potency: inconclusive: 22.5 µM [activator, full curve]
[2]
  Potency: inconclusive: 24.5 µM
[3]
  Potency: active: 127 µM
[13]
  Potency: active: 19.5 µM
[7]
  Potency: inconclusive: 21.9 µM [phenotype inactive, partial curve]

## c1ccc(-c2ccc(C(c3ccccc3)n3ccnc3)cc2)cc1 (configuration not stated)
[1]
  Potency: inconclusive: 22 µM [fluorescent, single point]
[2]
  Potency: inconclusive: 23.9 µM [partial curve]
[3]
  Potency: inconclusive: 24.7 µM [cytotoxic, partial curve, poor fit]
[13]
  Potency: active: 30.1 µM
[6]
  Potency: inconclusive: 30.1 µM [cytotoxic, partial curve, poor fit]
[15]
  Potency: active: 26.8 µM
[16]
  Potency: inconclusive: 0.535 µM [activator, single point]
